Data: PubChem BioAssay AID938 (National Center for Advancing Translational Sciences (NCATS), 2007)
Among all 73,000 compounds or so, about 1,800 (2.5%) were called active. The inconclusive results got no clear call from the source; some entries with a clear call stand among them for comparison. Calls follow the shape of the dose curve; as a rule, active = well fitted activation curve with a large enough effect; inconclusive = small, poorly fitted or top-dose-only effect; inactive = no such curve, though single readings can be large or run the other way. No potency is given beside an inconclusive call; the fits are too rough.

Assay: qHTS Assay for Agonists of the Thyroid Stimulating Hormone Receptor: Activators of Intracellular cAMP Concentrations in Parental HEK 293; also: nearly all actives have a fitted effect of over 55% in size; as to activation: % of control where 0% means no effect
Details: parental HEK293 CNG cAMP sensor, membrane potential fluorescence; activation: at 57.1 µM (top of the series) unless noted
Outline: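 Parental HEK 293 cells stably expressing a modified CNG channel (no TSHR) report cAMP rise as membrane depolarization. Membrane potential dye with 100 uM RO 20-1724 was loaded for 60 min at room temperature, then compound added for 30 min; fluorescence read at 590 nm.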
Potency is read from the fitted curve at half-maximal effect; tags tell the direction and shape of the fitted curve.

Structure (SMILES)	activation	Potency
CCOc1ccccc1N1CCN(S(=O)(=O)CC)CC1	inactive: -0.717%	–
O=C(CSc1nnc(CNc2ccc(F)cc2)n1Cc1ccccc1)NCc1ccco1	inactive: 15.7%	–
COc1ccc(-c2nn3c(-c4ccco4)nnc3s2)cc1OC	inactive: -4.08%	–
Cc1ccccc1N1OC2C(=O)N(c3ccc(F)cc3)C(=O)C2C1c1ccccn1 (configuration not stated)	–	active: 20 µM
O=C(O)c1ccc(-n2nc(C(F)(F)F)c3c2-c2ccoc2CC3)cc1	–	inconclusive [activator, single point]
COC(=O)Nc1sc2c(c1C(=O)NCc1ccco1)CCC2	–	inconclusive [activator, partial curve]
O=C(OCc1nnc(-c2ccccc2)o1)C1=COCCO1	inactive: 3.63%	–
COc1ccc(C2C3=C(CCCC3=O)Nc3nc4ccccc4n32)cc1OC (configuration not stated)	inactive: -4.82%	–
COC(=O)c1ccc2c(=O)n(CC3CCCO3)c(SCC(=O)Nc3ccccc3OC)nc2c1 (configuration not stated)	–	inconclusive [activator, single point]
C=CCSC1=C(C#N)C(c2cccc(OC)c2)CC(=O)N1 (configuration not stated)	inactive: 4.13%	–
COC(=O)[C@@]1(Cc2ccccc2)[C@H]2c3cc(C(=O)N4CCCC4)n(Cc4ccccn4)c3C[C@H]2CN1C(=O)c1ccccc1	–	active: 3.16 µM
CC(=O)c1cccc(NC(=O)Oc2ccccc2)c1	inactive: -13.3%	–
CCOC(=O)c1cc2sccc2n1CC(=O)N1CCCc2ccccc21	–	inconclusive [activator, partial curve]
CC(=O)c1ccc(-c2nc3ccccc3n2C)o1	inactive: 7.79%	–
Cc1ccc(-c2csc3ncnc(-n4nc(C)cc4N)c23)cc1	–	inconclusive [activator, single point]
O=C(O)c1cccnc1C(=O)O	–	inconclusive [activator, single point]
CCOc1ccccc1NC(=O)C1C2C=CC(O2)C1C(=O)O (configuration not stated)	–	inconclusive [activator, single point]
C/C(=C\C(=O)c1ccncc1)Nc1ccccc1O	–	inconclusive [activator, partial curve]
N#Cc1cc2ccccc2nc1SCc1cccnc1	–	inconclusive [activator, partial curve]
COc1ccccc1-c1ccc2ncnc(NCc3ccccc3)c2c1	–	inconclusive [activator, full curve]
CCOC(=O)c1[nH]c(C)c(C(=O)NC2CCCC2)c1C	–	active: 25.1 µM
O=C(Oc1ccc2ccccc2c1)c1ccco1	inactive: -1.24%	–
CC1CCN(S(=O)(=O)c2ccc(F)c(C(=O)O)c2)CC1	inactive: 5.32%	–
COc1cccc(C(c2nnnn2Cc2ccccc2)N2CCN(C(=O)c3ccco3)CC2)c1OC (configuration not stated)	inactive: 14.9%	–
O=C1[C@H]2[C@H]3[C@H](O)[C@H](O)C/C(=N/OCc4ccccc4)[C@@H]3CC[C@@H]2C(=O)N1C[C@@H]1CCCO1	–	inconclusive [activator, single point]
CCOC(=O)c1c(C)nc(-c2ccccc2)nc1N	inactive: 3.31%	–

Structure (SMILES)	activation	Potency
COc1cc(C(=O)OC(C)C(=O)N2CCc3ccccc3C2)ccc1OCC(=O)N1CCOCC1 (configuration not stated)	inactive: 12%	–
COC(=O)[C@@]1(Cc2ccc(F)cc2)[C@H]2c3cc(C(=O)N(C)C)n(Cc4cccc5ccccc45)c3C[C@H]2CN1C(=O)c1ccccc1	–	active: 15.8 µM
O=C(c1ccco1)N1CCC2(CC1)CCN(c1ccc(-c3ccccc3)cc1)CC2	inactive: 5.64%	–
CCN1CCC[C@H]1CNC(=O)c1c(O)c(Cl)cc(Cl)c1OC	inactive: -3.52%	–
CCN(CC)CC(=O)n1c2c(c3ccccc31)CCCC2	–	inconclusive [activator, single point]
COCc1cc(C)nc(SCC(=O)c2ccc(O)c(O)c2)c1C#N	inactive: 11.1%	–
Nc1c(C(=O)NCCN2CCOCC2)c2nc3ccccc3nc2n1-c1ccc2c(c1)OCO2	inactive: 17.9%	–
COc1ccc(CNc2nc(SC)n[nH]2)cc1OC	inactive: 6.91%	–
COc1ccc(-c2nc(C#N)c(N3CCCCCC3)o2)cc1	inactive: 20.9%	–
CC(C)(C)OC(=O)N[C@@H](Cc1ccccc1)c1nnc(S(=O)(=O)Cc2ccccc2)o1	–	inconclusive [activator, single point]
COc1ccccc1-c1cc(N)n(S(=O)(=O)c2ccc(F)c(C)c2)n1	inactive: 19.9%	–
CCCCSc1nc2c(c(=O)[nH]c(=O)n2C)n1CCc1ccccc1	–	inconclusive [activator, single point]
CCCCCC1=C2CNC(Cc3ccccc3)(C(=O)OC)C=C2C(C)C1=O (configuration not stated)	–	inconclusive [activator, partial curve]
CCOC(=O)C1CCCN(S(=O)(=O)c2cc(Br)cc3c2N(C(=O)C2CC2)CC3)C1 (configuration not stated)	–	inconclusive [activator, full curve]
Cc1ccc(S(=O)(=O)NC(C)C(=O)NC2CCCCCC2)cc1 (configuration not stated)	–	inconclusive [activator, single point]
O=C(NCc1cccnc1)c1ccc(CS(=O)(=O)c2ccc(Br)cc2)o1	–	inconclusive [activator, single point]
Cc1cc(C(=O)Cn2nnc(-c3ccc(Cl)cc3)n2)c(C)n1CC1CCCO1 (configuration not stated)	–	inconclusive [activator, partial curve]
CCOc1ccc(NC(C)=O)cc1	–	inactive
N#Cc1nc(COc2cccc(Cl)c2)oc1N1CCCC1	–	active: 12.6 µM
COc1ccc(NC(=O)c2oc3ccccc3c2NC(=O)C(C)(C)C)cc1	–	inconclusive [activator, single point]
O=C(CSc1nc2ccccc2o1)N1CCN(c2ccccc2)CC1	–	inconclusive [activator, partial curve]
CCN(CC)S(=O)(=O)c1ccc(Nc2nc3ccccc3n3nnnc23)cc1	inactive: 27.7%	–
OC[C@H]1NC[C@H](O)[C@@H](O)[C@H]1O	inactive: -2.91%	–
CCc1cc(C(=O)OC)c(NC(=O)CC2NCCNC2=O)s1 (configuration not stated)	inactive: -1.48%	–
C=C(C)C(O)/C=C/C=C/c1ccccc1 (configuration not stated)	inactive: -1.47% [at 11.4 µM]	–
Cn1cccc1C(=O)OCc1cc(Cl)cc2c1OCOC2	–	inconclusive [activator, single point]

Structure (SMILES)	activation	Potency
CC(=O)OC1CC(C)(C)N(OC(=O)c2ccccc2)C(C)(C)C1	–	inconclusive [activator, single point]
CCOC(=O)N1CCN(C(=O)Nc2sc3nc4n(c(=O)c3c2C)CCC(C)CC4)CC1 (configuration not stated)	–	inconclusive [activator, single point]
CC(NC(=O)C(C)(C)C)c1nc2ccccc2n1C (configuration not stated)	inactive: 2.55%	–
OC[C@@H]1O[C@@H](n2cnc3c(NC4CCCCC4)ncnc32)[C@@H](O)[C@H]1O	inactive: 21.3%	–
O=C(CSc1nnc(Cc2cccs2)n1Cc1ccco1)Nc1ccc(Br)cc1	–	inconclusive [activator, full curve, poor fit]
Cc1ccc(C(=O)CSc2n[nH]c(C)n2)cc1	–	inconclusive [activator, single point]
COc1c(F)c(F)c(C(=O)Nc2cccc(Cl)c2N2CCOCC2)c(F)c1F	–	inconclusive [activator, partial curve]
c1ccc(Nc2ncnc3ccc(-c4ccc5c(c4)OCO5)cc23)cc1	–	inconclusive [activator, partial curve]
COc1ccc(-n2c(=O)c(CCc3ccccc3)nc3cnc(OC)nc32)cc1	–	inconclusive [activator, partial curve]
c1ccc(CNc2ncnc3c2cnn3-c2ccccc2)cc1	–	inconclusive [activator, single point]
COc1ccc(N2CCN(CC(=O)Nc3c(C)cc(C)cc3C)CC2)cc1	–	inconclusive [activator, partial curve]
COc1ccccc1S(=O)(=O)Cc1ccc(C(=O)N2CCN(c3cccc(Cl)c3)CC2)o1	–	active: 5.01 µM
Cc1cccc(NC(=O)C2CCN(S(=O)(=O)c3cccc4cccnc34)CC2)n1	inactive: 16.5%	–
C=CCSc1nnc(NC(=O)CSc2ccccn2)s1	–	inconclusive [activator, single point]
OC[C@@H]1O[C@@H](n2cnc3cncnc32)[C@@H](O)[C@H]1O	inactive: 17.3%	–
CCn1ccc(C(=O)Oc2ccc(C(C)C)cc2)n1	inactive: -5.31%	–
CCNS(=O)(=O)c1ccc(S(=O)(=O)N(Cc2ccccn2)C2CCCCC2)cc1	–	inconclusive [activator, full curve, poor fit]
CCCOc1cccc(C(=O)N(Cc2cccs2)C2CCS(=O)(=O)C2)c1 (configuration not stated)	–	inconclusive [activator, partial curve]
c1ccc(CCc2nn3c(C4COc5ccccc5O4)nnc3s2)cc1 (configuration not stated)	–	active: 15.8 µM
COc1ccc(C(CC(=O)NC(C)(C)C)n2cccc2)cc1 (configuration not stated)	inactive: 9.9%	–
CCn1c(SCC(=O)Nc2ccccc2C(=O)OC)nc2c1c(=O)n(C)c(=O)n2C	–	inconclusive [activator, single point]
Cc1ccc(S(=O)(=O)N2C(=O)CCC2C(=O)N2CCN(C)CC2)cc1 (configuration not stated)	–	inconclusive [activator, single point]
CC(=O)NCCNc1nc(-c2cccnc2)nc2ccccc12	–	inconclusive [activator, partial curve, poor fit]
COC(=O)C(C)Sc1nnc(Cc2cc(=O)[nH]c(=O)[nH]2)n1-c1ccc(OC)cc1 (configuration not stated)	–	inconclusive [activator, single point]
Cn1cccc1C(C(=O)NC1CCCCC1)N(C(=O)Cc1cccs1)C1CC1 (configuration not stated)	–	inconclusive [activator, partial curve]
